Laboratory results from patent publication US20160193325A1 (priority 2002, published 2016).

Biological target: E1E2 complexes (Hepatitis C virus genotype 1a, UniProt P27958)
Type: binding, HCV
Settings: pre-incubated with the HCVpp

Sequence of E1E2 complexes (P27958 384-745 limits assumed): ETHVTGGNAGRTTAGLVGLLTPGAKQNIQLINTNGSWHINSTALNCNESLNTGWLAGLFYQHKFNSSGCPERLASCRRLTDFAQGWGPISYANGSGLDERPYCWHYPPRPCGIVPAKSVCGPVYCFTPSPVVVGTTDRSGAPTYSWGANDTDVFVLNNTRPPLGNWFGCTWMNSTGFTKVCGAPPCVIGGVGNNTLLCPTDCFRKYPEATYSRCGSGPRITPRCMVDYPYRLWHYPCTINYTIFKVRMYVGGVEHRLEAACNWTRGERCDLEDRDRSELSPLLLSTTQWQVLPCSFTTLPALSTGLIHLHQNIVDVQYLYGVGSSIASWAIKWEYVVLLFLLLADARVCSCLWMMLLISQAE
Sequence of E1E2 complexes (P27958 192-383 partner limits assumed): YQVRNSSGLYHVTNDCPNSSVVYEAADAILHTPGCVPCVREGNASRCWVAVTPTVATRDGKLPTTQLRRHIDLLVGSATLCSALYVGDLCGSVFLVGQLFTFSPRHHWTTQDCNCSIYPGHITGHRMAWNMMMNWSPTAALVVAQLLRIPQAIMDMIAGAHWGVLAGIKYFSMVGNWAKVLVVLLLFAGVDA

B1: GST-fusion hCD81-LEL polypeptides: recombinant GST-fusion polypeptides encompassing the large extra-cellular loop of human CD81 (protein)
chain: FVNKDQIAKDVKQFYDQALQQAVVDDDANNAKAVVKTFHETLDCCGSSTLTALTTSVLKNNLCPSGSNIISNLFKEDCHQKIDDLFSGK
modifications: left off: a dimerising Fc or GST
notes: recombinant GST-fusion polypeptides encompassing the large extra-cellular loop of human CD81
**Q.** For B1, which “precipitation of E1E2 complexes” value is on record?
**A.** could specifically precipitate E1E2 complexes
